In all, about 350,000 compounds went through this assay and about 9,900 (2.8%) were called active. Inconclusive results, whose numbers are uncertain, are shown with a selection of clear calls. Calls follow the shape of the dose curve; as a rule, active = well fitted activation curve with a large enough effect; inconclusive = small, poorly fitted or top-dose-only effect; inactive = no such curve, though single readings can be large or run the other way. No potency is given beside an inconclusive call; the fits are too rough.
Assay: A quantitative high throughput screen for small molecules that induce DNA re-replication in MCF 10a normal breast cells. Also: nearly all actives have a fitted effect of over 50% in size. As to activity, positive = re-replication: % of control where 0% means no effect.
Settings: MCF 10A DNA re-replication, Hoechst nuclear intensity, 48 h; activity, positive = re-replication: at 46.1 µM (top of the series)
Potency is read from the fitted curve at half-maximal effect; tags tell the direction and shape of the fitted curve.

Structure (SMILES) | Potency | activity, positive = re-replication
Cc1ccc(C)c(C2C(=O)c3ccccc3C2=O)c1 | inactive | 
CCC(=O)/C=C1/Sc2ccccc2N1CC | inconclusive [activator, single point] | 
COC(=O)c1ccc2c(=O)n(CCCN3CCOCC3)c(=S)[nH]c2c1 | inconclusive [activator, single point] | 
O=C(Nc1cccc(O)c1)c1cc(-c2ccccc2Cl)on1 | inactive | 
Cc1cc(C)cc(Nc2cnn(C34CC5CC(CC(CC(=O)O)(C5)C3)C4)c(=O)c2Cl)c1 | active: 23.1 µM | 
Cn1c(/C=C/c2ccc(Br)cc2)nc2ccccc2c1=O | inconclusive [activator, single point] | 
NC(=O)c1c(NC(=S)Nc2ccccc2)sc2c1CCCC2 |  | inactive: 6.3% [at 9.22 µM]
S=C1NCCNC(=S)NCCOCCN1 | inactive | 
CC1(C)Cc2ccccc2-c2nc3n(c(=O)c21)CCCS3 | inconclusive [activator, single point] | 
COC(=O)c1c(C)oc2c1cc(NS(=O)(=O)c1cccs1)c1ccccc12 | inconclusive [activator, single point] | 
O=C1[C@@H]2[C@@H]3C[C@@H]([C@H]4ON=C(c5ccc(Cl)cc5)[C@@H]34)[C@@H]2C(=O)N1C1CCCCC1 | inconclusive [activator, single point] | 
CC1CN(Cc2ccccc2)C(C)CC1O (stereo not drawn) | inconclusive [activator, single point] | 
CCOc1ccc(N2CC(C(=O)Nc3nnc(Cc4ccc(OC)c(OC)c4)s3)CC2=O)cc1 (stereo not drawn) | inactive | 
N=c1c(C(=O)NCCc2ccccc2)cc2c(=O)n3ccccc3nc2n1CCCN1CCOCC1 |  | inconclusive: 80.1% [activator]
COc1cc2[nH]c(=O)n(CCCCCC(=O)NCCc3c[nH]c4ccccc34)c(=O)c2cc1OC | inconclusive [activator, partial curve, poor fit] | 
Cc1cc(OCCCC(=O)N2CCCCC2)cc(C)c1Cl | inconclusive [activator, partial curve, poor fit] | 
Cc1cc2oc(=O)sc2cc1NS(=O)(=O)c1cccc2cccnc12 | inconclusive [activator, single point] | 
O=C(c1ccc(N2CCN(C(=O)c3ccccc3)CC2)cc1)c1cccc(F)c1 | active: 9.2 µM | 
Cc1ccc(/C=C/C(=O)NCCc2ccccc2)o1 | inconclusive [activator, partial curve, poor fit] | 
COc1ccc(OC)c(Nc2nc(N)nc(-c3cc4ccccc4o3)n2)c1 | inconclusive [activator, partial curve, poor fit] | 
CC(=O)c1ccc(NC(=O)COc2ccccc2C(=O)Nc2ccc(C)cn2)cc1 | inconclusive [activator, partial curve, poor fit] | 
CN(Cc1ccccc1)C(=O)COC(=O)CCC(=O)c1ccc(F)cc1 | inactive | 

Structure (SMILES) | Potency | activity, positive = re-replication
CC(=O)NN1C(=O)/C(=C/c2ccc(C(C)C)cc2)SC1=S | inconclusive [activator, partial curve, poor fit] | 
CCOC(=O)c1nnn(CC(=O)Nc2cc(Cl)ccc2C)c1C(=O)OCC | inconclusive [activator, full curve, poor fit] | 
O=C(Nc1ccccc1N1CCN(C(=O)c2ccccc2)CC1)c1ccc([N+](=O)[O-])o1 | inconclusive [activator, single point] | 
O=C(CN1CCN(S(=O)(=O)c2ccc(Cl)c(Cl)c2)CC1)N1CCCCC1 | inconclusive [activator, single point] | 
Cc1ccc(CN2CCCCC2C(=O)Nc2ccc(Oc3cccnc3)cc2)o1 (stereo not drawn) | active: 14.6 µM | 
Cc1c(Cl)cccc1NC(=O)CSc1nc2ncc(Cl)cc2[nH]1 | inactive | 
CCc1ccc(-c2nc(CN3CCC(C(=O)NCCc4ccc(OC)c(OC)c4)CC3)c(C)o2)cc1 | inactive | 
CC(C)N(C(=O)c1ccc2nc(-c3ccccc3)c(-c3ccccc3)nc2c1)C(C)C | inconclusive [activator, single point] | 
COc1ccc(-n2nc([N+](=O)[O-])c(=NCc3cccnc3)n2O)cc1 | inactive | 
NNC(=O)c1ccc(Cn2cccn2)o1 | inconclusive [activator, single point] | 
CCOCCc1nnc(NC(=O)C2CC(=O)N(CCc3ccc(F)cc3)C2)s1 (stereo not drawn) | inconclusive [activator, single point] | 
CCCC(=O)NC1CCc2cc(OC)c(OC)c(OC)c2-c2ccc(OC)c(=O)cc21 (stereo not drawn) |  | inconclusive: 87.6% [activator]
Cc1ccc(-c2csc3ncnc(SCc4ccc(C(=O)O)cc4)c23)cc1 | inconclusive [activator, single point] | 
FC(F)(F)c1cccc(-c2nc3nc(Cl)c(Cl)nc3[nH]2)c1 | inconclusive [activator, partial curve] | 
COc1ccccc1CCNC(=O)c1ccc(NC(=O)CC2SC(N3CCCC3)=NC2=O)cc1 (stereo not drawn) | inactive | 
Cc1sc2c(c1C)c(=O)n(-c1ccc(Cl)cc1)c(=O)n2Cc1cc(=O)n2ccccc2n1 | inactive | 
O=c1[nH]cnc2c1ncn2[C@@H]1O[C@H](CO)[C@@H](O)[C@H]1O | inconclusive [activator, partial curve, poor fit] | 
O=C(O)c1cc(NS(=O)(=O)c2ccc(F)cc2)cc(NS(=O)(=O)c2ccc(F)cc2)c1 | inactive | 
COC(=O)c1ccc(OCC(=O)Nc2ccsc2C(=O)OC)cc1 | inconclusive [activator, partial curve, poor fit] | 
CCCN(C(=O)CSc1n[nH]c(-c2ccc(OC)cc2)n1)c1c(N)n(Cc2ccccc2)c(=O)[nH]c1=O | inactive | 
COc1ccc(NC(=O)c2nc[nH]c2C(=O)Nc2ccccc2C)cc1 | inconclusive [activator, partial curve, poor fit] | 

— PubChem BioAssay AID624296 (National Center for Advancing Translational Sciences (NCATS), 2012)
